{"source": "PubChem BioAssay AID1508623", "about": "(National Center for Advancing Translational Sciences (NCATS), 2021)", "note": "About 450 (0.94%) of roughly 48,000 compounds were called active. Another 19% or so got no clear call; they are omitted. The call rests on the fitted dose curve; in most records, active means well fitted inhibition curve with a large enough effect; inconclusive means small, poorly fitted or top-dose-only effect; inactive means no such curve, though single readings can be large or run the other way. This is one part of the list."}
{"assay": "Primary qHTS for Identification of Small Molecule Inhibitors of Huntingtin Promoter Activity; further: nearly all actives have a fitted effect of over 50% in size", "details": "HEK293 HTT promoter firefly luciferase reporter (activity 0% = vehicle and -100% = no light), 24 h; series mostly up to 57.5 µM; activity change, negative = inhibition: at the top concentration", "outline": "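Quantitative HTS used concentration series of up to 57.5 uM final on HEK293 luciferase reporter cells, 24 h at 37 degrees C. Readout was Dual-Glo firefly luminescence.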"}
{"smiles": "C=C[C@H]1CN2CC[C@H]1C[C@H]2[C@H](O)c1ccnc2ccc(OC)cc12", "activity change, negative = inhibition": "inactive: 12.8%"}
{"smiles": "CC(C)C(=O)Nc1ccc2nc(SCC(=O)N3CCOCC3)sc2c1", "activity change, negative = inhibition": "inactive: 1.83%"}
{"smiles": "Cc1ccc(C)n1-c1nnc(N2CCC(C(=O)NCc3ccc(F)cc3)CC2)s1", "activity change, negative = inhibition": "inactive: -27.7%"}
{"smiles": "CCOC(=O)c1c(N)n(-c2ccccc2CC)c2nc3ccccc3nc12", "activity change, negative = inhibition": "inactive: 2.18%"}
{"smiles": "Cc1ccc(N2CC(c3nnc(NC(=O)c4ccco4)s3)CC2=O)cc1Cl", "note": "(stereo not given)", "activity change, negative = inhibition": "inactive: -7.06%"}
{"smiles": "O=S(=O)(c1ccc(Br)cc1)c1nnn2c1nc(NC1CCCCCC1)c1sccc12", "activity change, negative = inhibition": "inactive: -7.2%"}
{"smiles": "CCC(=O)Nc1sc2c(c1C(=O)Nc1ccccc1C)CCC(C)C2", "note": "(stereo not given)", "activity change, negative = inhibition": "inactive: -22.3%"}
{"smiles": "Cn1c(=O)c2sccc2n2c(CCC(=O)N3CCN(c4ccccc4)CC3)nnc12", "activity change, negative = inhibition": "inactive: 0.96%"}
{"smiles": "Cc1ccc(-n2nc3ccc(NC(=O)c4cc5ccccc5o4)cc3n2)cc1", "activity change, negative = inhibition": "inactive: 31.5%"}
{"smiles": "O=C(O)c1cc(=O)[nH]c(=O)[nH]1", "activity change, negative = inhibition": "inactive"}
{"smiles": "COC(=O)c1ccccc1NC(=O)c1noc2c1CSc1ccccc1-2", "activity change, negative = inhibition": "inactive: -6.98%"}
{"smiles": "COc1ccc2nc(NC(=O)c3ccc(S(=O)(=O)N4CCC(C)CC4)cc3)sc2c1", "activity change, negative = inhibition": "inactive: -28.2%"}
{"smiles": "CCc1ccc(NC(=O)N2CCN(Cc3cc(=O)n4nc(-c5ccccc5OC)sc4n3)CC2)cc1", "activity change, negative = inhibition": "inactive: 0.505%"}
{"smiles": "CCOC(=O)c1cccc(NC(=O)NCCc2c(C)nn(C)c2C)c1", "activity change, negative = inhibition": "inactive: 2.67%"}
{"smiles": "COC(=O)c1cc2occc2n1CC(=O)Nc1cccc(SC)c1", "activity change, negative = inhibition": "inactive: -18%"}
{"smiles": "CC(=O)NCCCCCC(=O)O", "activity change, negative = inhibition": "inactive: 5.38%"}
{"smiles": "CCn1c(=N)c(C(=O)NCc2cccnc2)cc2c(=O)n3cc(C)ccc3nc21", "activity change, negative = inhibition": "inactive: -5.7%"}
{"smiles": "COc1ccc(-c2nc(CSCC(=O)NCCc3ccc(C)cc3)c(C)o2)cc1OC", "activity change, negative = inhibition": "inactive: -26.5%"}
{"smiles": "COc1ccccc1Cc1nc2ccccc2nc1SCC(=O)NCCc1ccccc1", "activity change, negative = inhibition": "inactive: -12.2%"}
{"smiles": "CCN(CC)CCCNC(=O)c1c(C)oc2ncnc(N3CCOCC3)c12", "activity change, negative = inhibition": "inactive: -2.2%"}
{"smiles": "CCS(=O)(=O)c1ccccc1C(=O)N(Cc1cccnc1)c1nc2cc(C)c(C)cc2s1", "activity change, negative = inhibition": "inactive: 26%"}
{"smiles": "CCc1noc2nc(C)n(CC(=O)O)c(=O)c12", "activity change, negative = inhibition": "inactive: -16.8%"}
{"smiles": "CCOC(=O)Cn1cc2c(c1-c1ccc(Cl)cc1)c(=O)n(C)c(=O)n2C", "activity change, negative = inhibition": "inactive: -3.21%"}
{"smiles": "CN(C(=O)CSc1nc2ccccc2n1CC(=O)NCc1ccc(F)cc1)c1ccc(F)cc1", "activity change, negative = inhibition": "inactive: -24.5%"}
{"smiles": "Cc1c(C(=O)NCc2ccc(Cl)cc2)sc2nc3n(c(=O)c12)CCCC3", "activity change, negative = inhibition": "inactive: -6.01%"}
{"smiles": "O=c1n(CCCN2CCN(c3cccc(Cl)c3)CC2)nc2ccccn12", "activity change, negative = inhibition": "inactive"}
{"smiles": "Cc1cccc(-n2c(=O)c3c(c4cc(C)ccc4n3C)n(CC(=O)Nc3ccccc3C(F)(F)F)c2=O)c1", "activity change, negative = inhibition": "inactive: -12.9%"}
{"smiles": "c1ccc(C(c2cccs2)c2c[nH]c3ccccc23)cc1", "note": "(stereo not given)", "activity change, negative = inhibition": "inactive: -29.8%"}
{"smiles": "Cc1ccc(-c2noc(CN(C3CCCCC3)S(=O)(=O)c3ccc(Cl)cc3)n2)cc1", "activity change, negative = inhibition": "inactive: -1.79%"}
{"smiles": "Cc1ccc(CNc2ncnc3c2c(-c2ccccc2)cn3-c2cccc(Cl)c2)cc1", "activity change, negative = inhibition": "inactive: -18%"}
{"smiles": "COc1ccc(-c2nc3n(n2)C(c2ccccc2F)C(C(=O)Nc2cccnc2)=C(C)N3)cc1OC", "note": "(stereo not given)", "activity change, negative = inhibition": "inactive: -4.53%"}
{"smiles": "CCCCN(C(=O)c1cccc(S(=O)(=O)N2CCCCC2)c1)C1CCS(=O)(=O)C1", "note": "(stereo not given)", "activity change, negative = inhibition": "inactive: -19.7%"}
{"smiles": "COCCCNC(=O)c1sc2ncccc2c1-n1cccc1", "activity change, negative = inhibition": "inactive: 13%"}
{"smiles": "O=C(Nc1ccc(F)c(Cl)c1)N1CCN2CCCCC2C1", "note": "(stereo not given)", "activity change, negative = inhibition": "inactive: -2.79%"}
{"smiles": "CCN(CC)c1ccc(-c2nc(-c3ccncc3)no2)cc1[N+](=O)[O-]", "activity change, negative = inhibition": "inactive: 11.8%"}
{"smiles": "Cc1ccc2cccc(NC(=O)c3cccc4ccccc34)c2n1", "activity change, negative = inhibition": "inactive: -27.1%"}
{"smiles": "O[C@@H](CNC[C@H](O)[C@H]1CCc2cc(F)ccc2O1)[C@@H]1CCc2cc(F)ccc2O1", "activity change, negative = inhibition": "inactive"}
{"smiles": "CCN1C(=O)c2cccc3c(S(=O)(=O)Nc4ccc(O)c(C(=O)O)c4)ccc1c23", "activity change, negative = inhibition": "inactive: -0.285%"}
{"smiles": "CC(C)(C)OC(=O)N1CCC(c2c(C(=O)N3CCc4ccccc4C3)cnn2-c2ccc(Cl)cc2)CC1", "activity change, negative = inhibition": "inactive: -18.4%"}
{"smiles": "CCOc1ccccc1C(=O)N(Cc1ccc(N(C)C)cc1)CC1CCCO1", "note": "(stereo not given)", "activity change, negative = inhibition": "inactive: 5.23%"}
{"smiles": "CCS(=O)(=O)Nc1cc(-c2cn3ccc(C)cc3n2)ccc1C", "activity change, negative = inhibition": "inactive: 57.7%"}
{"smiles": "CCCCNC(=O)CSc1nc2cc3c(cc2c(=O)n1CCCC(=O)NCc1ccc2c(c1)OCO2)OCO3", "activity change, negative = inhibition": "inactive: -14.8%"}
{"smiles": "Cc1ccc(Cl)cc1NC(=O)Cn1c(=O)cc(C)c2c(C)nn(C)c21", "activity change, negative = inhibition": "inactive: -15.9%"}
{"smiles": "Cc1ccc(CNC(=O)CCNS(=O)(=O)c2ccc3c(c2)oc(=O)n3C)cc1", "activity change, negative = inhibition": "inactive: -11.6%"}
{"smiles": "O=C(COc1ccc(Br)cc1Br)Nc1ccc(S(=O)(=O)Nc2ncccn2)cc1", "activity change, negative = inhibition": "inactive: -14.2%"}
{"smiles": "Cc1oc(-c2cccc(Cl)c2)nc1CN1CCC(C(=O)NC(C)C)CC1", "activity change, negative = inhibition": "inactive: 1.08%"}
{"smiles": "COc1cccc(C2CC(=O)Nc3c2c(=O)n(C)c2nc4ccccc4n32)c1OC", "note": "(stereo not given)", "activity change, negative = inhibition": "inactive: 0.112%"}
{"smiles": "O=C(CCn1c(=O)c2sccc2n(Cc2ccc(F)cc2)c1=O)NCc1ccc2c(c1)OCO2", "activity change, negative = inhibition": "inactive: -2.86%"}
{"smiles": "Cc1ccc(-n2nc3cc(C)c(NC(=O)c4ccc(-c5ccccc5)o4)cc3n2)cc1", "activity change, negative = inhibition": "inactive: 30.5%"}
{"smiles": "Cc1ccc(NC(=O)CC2Oc3ccc(C)cc3NC2=O)c(C)c1", "note": "(stereo not given)", "activity change, negative = inhibition": "inactive: -18.8%"}
